Single values of this set are uncertain.
assay: amyloid nucleation score relative to library mode (yeast Sup35 reporter selection) (log enrichment difference); higher = more amyloid nucleation; sequences are the first 22 residues of the Bri2 peptide extended by up to 12 random residues; conditions: random library (experiment): 1;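 active = nucleation score significantly above 0 at FDR 0.05; inactive = not significantly above 0 or absent from output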
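Further: [psi-pin-] Saccharomyces cerevisiae expressing SupN fusions, induced by 100 µM Cu2SO4, selected 7 d at 30 °C without adenine and uracil, scored by deep sequencing of output versus input.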

Row | Sequence | amyloid nucleation score
1 | EASNCFAIRHFENKFAVETLICIRQRWYSMCIRS | inactive
2 | EASNCFAIRHFENKFAVETLICIRCDR | inactive
3 | EASNCFAIRHFENKFAVETLICMQARWPV | -0.302
4 | EASNCFAIRHFENKFAVETLICRAWLFHFTRTQK | -0.0664
5 | EASNCFAIRHFENKFAVETLICASGMALSGTARR | inactive
6 | EASNCFAIRHFENKFAVETLICMWAHYSMAKSSA | inactive
7 | EASNCFAIRHFENKFAVETLICVKPVGFMGHGVG | inactive
8 | EASNCFAIRHFENKFAVETLICGTHLVAELACER | inactive
9 | EASNCFAIRHFENKFAVETLICCGKLSLDDSGCG | 7.86
10 | EASNCFAIRHFENKFAVETLICQSCYRRYEGEQV | 2.31
11 | EASNCFAIRHFENKFAVETLICYGFCSEGNMSSP | 8.17
12 | EASNCFAIRHFENKFAVETLICCMLRTARLRTAA | inactive
13 | EASNCFAIRHFENKFAVETLICRITSRFWLYMKY | inactive
14 | EASNCFAIRHFENKFAVETLICWCSVGMGLGEY | inactive
15 | EASNCFAIRHFENKFAVETLICGRVMSRWREVP | inactive
16 | EASNCFAIRHFENKFAVETLICYRQMCNRGMRDS | inactive
17 | EASNCFAIRHFENKFAVETLICVP | inactive
18 | EASNCFAIRHFENKFAVETLICAARADRGGQVPR | inactive
19 | EASNCFAIRHFENKFAVETLICKYLD | inactive
20 | EASNCFAIRHFENKFAVETLICCIYCSQVPRSTD | 8.77
21 | EASNCFAIRHFENKFAVETLICGHWPPLWWANRA | 3.25
22 | EASNCFAIRHFENKFAVETLICCAG | 2.96
23 | EASNCFAIRHFENKFAVETLICIRIDTTTTIIFG | inactive
24 | EASNCFAIRHFENKFAVETLICLTWYLCKRWSGR | inactive
25 | EASNCFAIRHFENKFAVETLICFNRRSWEVVGMR | 0.384

Row | Sequence | amyloid nucleation score
26 | EASNCFAIRHFENKFAVETLICTMAKHASGSSGS | 0.328
27 | EASNCFAIRHFENKFAVETLICFSWWECSYAMLA | inactive
28 | EASNCFAIRHFENKFAVETLICLNSERTSSPTPR | 0
29 | EASNCFAIRHFENKFAVETLICQF | 3.79
30 | EASNCFAIRHFENKFAVETLICPANKGCTLLSVR | inactive
31 | EASNCFAIRHFENKFAVETLICTMTIYVNELRRL | inactive
32 | EASNCFAIRHFENKFAVETLICRFRFFRTSLYSV | inactive
33 | EASNCFAIRHFENKFAVETLICPIRPKTMRRVLR | inactive
34 | EASNCFAIRHFENKFAVETLICNKEMASSQVEER | inactive
35 | EASNCFAIRHFENKFAVETLICNGLCNRDTDP | 6.85
36 | EASNCFAIRHFENKFAVETLICLDLMSPQRKGRC | 2.23
37 | EASNCFAIRHFENKFAVETLICIGQRECR | inactive
38 | EASNCFAIRHFENKFAVETLICVYTDSRPVHAMP | 4.41
39 | EASNCFAIRHFENKFAVETLICTPVAL | 0.747
40 | EASNCFAIRHFENKFAVETLICGLVSQSSSGRRD | 2.37
41 | EASNCFAIRHFENKFAVETLICLSKLNDSMPSFS | inactive
42 | EASNCFAIRHFENKFAVETLICVNKSEPSYMTLR | inactive
43 | EASNCFAIRHFENKFAVETLICDPVIQVSRRRPK | inactive
44 | EASNCFAIRHFENKFAVETLICAF | inactive
45 | EASNCFAIRHFENKFAVETLICNDVWHVQVLWGH | 7.01
46 | EASNCFAIRHFENKFAVETLICYMRRAWRRLLAR | 0.582
47 | EASNCFAIRHFENKFAVETLICAWCKDAVEVGWL | inactive
48 | EASNCFAIRHFENKFAVETLICIEVGRQVRRRPW | inactive
49 | EASNCFAIRHFENKFAVETLICCVCLPGVWIRRV | 7.73

same assay, conditions: random library (experiment): 2

Row | Sequence | amyloid nucleation score
50 | EASNCFAIRHFENKFAVETLICIVFMFYFRSSYV | inactive
51 | EASNCFAIRHFENKFAVETLICCVSVYWTTVLLN | 0.571
52 | EASNCFAIRHFENKFAVETLICNLGHSVLHMGFL | 5.91
53 | EASNCFAIRHFENKFAVETLICVFSRNTNSCLRR | inactive
54 | EASNCFAIRHFENKFAVETLICMRGCVAYKKL | inactive
55 | EASNCFAIRHFENKFAVETLICCRRVILLPFQRI | inactive
56 | EASNCFAIRHFENKFAVETLICPWYLVN | 2.86
57 | EASNCFAIRHFENKFAVETLICKMQELSSLFYTL | inactive
58 | EASNCFAIRHFENKFAVETLICDNIFDILESATY | inactive
59 | EASNCFAIRHFENKFAVETLICHSLTCKGACL | inactive
60 | EASNCFAIRHFENKFAVETLICTVSFFCYFYP | inactive
61 | EASNCFAIRHFENKFAVETLICFELHLALVQGPA | inactive
62 | EASNCFAIRHFENKFAVETLICDNVYFCVGMIRG | 6.03
63 | EASNCFAIRHFENKFAVETLICFEAECTDKVIHT | inactive
64 | EASNCFAIRHFENKFAVETLICPHLCSPEYNL | inactive
65 | EASNCFAIRHFENKFAVETLICLTFIALFSFKHP | 0.494
66 | EASNCFAIRHFENKFAVETLICLLTMSARALRPK | 3.11
67 | EASNCFAIRHFENKFAVETLICEGYVNCDSAVKV | -0.405
68 | EASNCFAIRHFENKFAVETLICRMLVGRGGQLIS | inactive
69 | EASNCFAIRHFENKFAVETLICIANYRCETRILL | inactive
70 | EASNCFAIRHFENKFAVETLICLGCVYQCFPDVL | 8.15
71 | EASNCFAIRHFENKFAVETLICYRNVYYSSVVLV | inactive

Row | Sequence | amyloid nucleation score
72 | EASNCFAIRHFENKFAVETLICVRVYHGVGVC | inactive
73 | EASNCFAIRHFENKFAVETLICLYCRVSARSGRG | -0.351
74 | EASNCFAIRHFENKFAVETLICDMLFWMYKKCGL | inactive
75 | EASNCFAIRHFENKFAVETLICYKMYYLL | inactive
76 | EASNCFAIRHFENKFAVETLICIPLHSFYVNCDE | 3.28
77 | EASNCFAIRHFENKFAVETLICKCFLFYTVRSGG | -0.207
78 | EASNCFAIRHFENKFAVETLICMISFARASVLIF | inactive
79 | EASNCFAIRHFENKFAVETLICKWLIQIEDSIKR | -0.14
80 | EASNCFAIRHFENKFAVETLICPDTHVYH | 0.528
81 | EASNCFAIRHFENKFAVETLICTVNVCCYFIAFC | inactive
82 | EASNCFAIRHFENKFAVETLICLLKTR | inactive
83 | EASNCFAIRHFENKFAVETLICYTWIDLRTDDAV | 4.69
84 | EASNCFAIRHFENKFAVETLICNTCKLLLKRSLS | inactive
85 | EASNCFAIRHFENKFAVETLICLRCCFLCYKRLR | inactive
86 | EASNCFAIRHFENKFAVETLICTSMCTLYSSC | 2.31
87 | EASNCFAIRHFENKFAVETLICCKLTINI | 6.55
88 | EASNCFAIRHFENKFAVETLICCVYCDVMQEYWI | 5.59
89 | EASNCFAIRHFENKFAVETLICWCVIRTSYGA | inactive
90 | EASNCFAIRHFENKFAVETLICAFQLNICYYTVG | inactive
91 | EASNCFAIRHFENKFAVETLICIQGIVDFTDSEI | 1.77
92 | EASNCFAIRHFENKFAVETLICQVYCLVTFAFSD | inactive
93 | EASNCFAIRHFENKFAVETLICREDNWQYLMGLA | -0.255

same assay, conditions: random library (experiment): 3

Row | Sequence | amyloid nucleation score
94 | EASNCFAIRHFENKFAVETLICMYGNGRVCAGMS | inactive
95 | EASNCFAIRHFENKFAVETLICATVFWTCDKFRW | inactive
96 | EASNCFAIRHFENKFAVETLICREYIQLEDGNLD | -0.308
97 | EASNCFAIRHFENKFAVETLICYVALTSTPWSPL | inactive
98 | EASNCFAIRHFENKFAVETLICLGRCVRSQMLWA | inactive
99 | EASNCFAIRHFENKFAVETLICVSEASRKVRMLD | inactive
100 | EASNCFAIRHFENKFAVETLICYHGVPSEYSR | inactive
101 | EASNCFAIRHFENKFAVETLICCPGTRPTRVSVG | inactive
102 | EASNCFAIRHFENKFAVETLICKRYQMKFSRRWR | 2.28
103 | EASNCFAIRHFENKFAVETLICCLVTSERDLPIA | 7.98
104 | EASNCFAIRHFENKFAVETLICPYCTN | 3.51
105 | EASNCFAIRHFENKFAVETLICQLPLQPGMYETA | inactive
106 | EASNCFAIRHFENKFAVETLICFCNNRVVCRVVD | inactive
107 | EASNCFAIRHFENKFAVETLICYTLKSCCTIARV | inactive
108 | EASNCFAIRHFENKFAVETLICAESPDSKFRYNL | inactive
109 | EASNCFAIRHFENKFAVETLICLGKARIPAGTRL | inactive
110 | EASNCFAIRHFENKFAVETLICVGAWLIPAVCYA | inactive
111 | EASNCFAIRHFENKFAVETLICNGKMYPCFDIVS | inactive
112 | EASNCFAIRHFENKFAVETLICPIRNGGSCLPNS | inactive
113 | EASNCFAIRHFENKFAVETLICDGTYGCKPKGAE | inactive
114 | EASNCFAIRHFENKFAVETLICGPMVSFEAYGPD | inactive
115 | EASNCFAIRHFENKFAVETLICYVRGCKIPVQWL | inactive
116 | EASNCFAIRHFENKFAVETLICTCDRGLRCSP | 6.49
117 | EASNCFAIRHFENKFAVETLICLMCGTFFALRMM | inactive
118 | EASNCFAIRHFENKFAVETLICMQVYSVCGPGGH | 3.3
